Source: the supplement of paper PMC3334620
Over roughly 33,000 sequences, “E-score (-0.5 to 0.5)” has its median near -0.04; the highest 2% begin near 0.36. The list shows a part of the results.

Target: T1, Hmlalpha2 (UniProt P0CY09)
T1 sequence: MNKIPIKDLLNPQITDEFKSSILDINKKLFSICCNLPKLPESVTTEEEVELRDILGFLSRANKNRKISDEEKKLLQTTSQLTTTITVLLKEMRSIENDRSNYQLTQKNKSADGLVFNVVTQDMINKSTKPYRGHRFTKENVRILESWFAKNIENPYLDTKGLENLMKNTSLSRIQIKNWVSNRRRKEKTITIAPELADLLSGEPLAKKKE
Test: PBM E-score (8-mer binding enrichment) (E-score (-0.5 to 0.5)); higher = stronger / more preferred TF binding; most listed sequences are background and not binding sites
Conditions: protein concentration: 200 nM; construct: GST-full length
Method in brief: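 For each ungapped eight-base word taken together with its reverse complement, the Universal PBM Analysis Suite assigned an E-score. Binding data came from GST-tagged yeast transcription factors, applied at about 100-200 nM, on universal all-10-mer Agilent arrays made double-stranded by primer extension. Fluorescent anti-GST marked bound protein, and scans were normalised with masliner.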

| Sequence | PBM E-score |
| --- | --- |
| CGGCGCGA | 0.0333 |
| ACCCGATA | -0.208 |
| AGCCCACT | -0.239 |
| AGGATGAT | -0.0283 |
| ACCGGATG | 0.0199 |
| GGCTCAGA | -0.122 |
| GGCATCCC | -0.318 |
| CGACGCGA | 0.0852 |
| CCGGGTCG | -0.125 |
| ACGGTGCT | -0.242 |
| CGGCAAGA | -0.0264 |
| GGCACTAA | -0.0245 |
| ACATCCAC | 0.0839 |
| AGCCGTCC | -0.189 |
| AATGGTAC | 0.0651 |
| AAAAATAG | 0.141 |
| GGTGCTGA | -0.212 |
| GAGTGTTA | 0.21 |
| ACTTTGAT | -0.0739 |
| AAAGTACA | 0.262 |
| GCTTTTCC | -0.184 |
| AGTAAGCA | 0.0205 |
| CAACCTTC | 0.0257 |
| GAGGGCTA | -0.217 |
| TCTGATCA | -0.0854 |

| Sequence | PBM E-score |
| --- | --- |
| GAGCATCA | -0.213 |
| TCTCGCAA | -0.103 |
| AGCTCCTA | -0.165 |
| CTATGCGC | -0.0691 |
| CGAACGAC | -0.0163 |
| CCTGACAA | 0.0323 |
| AGGCTGTC | -0.273 |
| TACGGCAA | 0.0454 |
| CCAGGGTC | -0.194 |
| CCCGCATC | -0.169 |
| GATCCGCA | -0.215 |
| AACCCCAA | 0.0146 |
| ATTCCAGG | -0.0979 |
| ACCTGTAC | 0.165 |
| GATAAGTA | 0.0843 |
| CCCGTCCA | -0.234 |
| AGACCTCG | -0.165 |
| ACAATGGT | -0.0479 |
| GAATGGTC | -0.161 |
| CCATAGTC | -0.225 |
| AAGCGATT | -0.137 |
| AGCCGACG | -0.0963 |
| TCAAGCAA | -0.0826 |
| CCGCGTGA | 0.102 |
| CTTCGGGA | -0.186 |

| Sequence | PBM E-score |
| --- | --- |
| CGAGATCA | -0.169 |
| CCACTCCA | -0.214 |
| CATTGCCA | 0.174 |
| ACTTCGTG | 0.119 |
| TATCGTCA | -0.00037 |
| CGAAAATC | 0.178 |
| AGCTACAT | 0.264 |
| ACGCGGCT | 0.271 |
| AGTACCTG | 0.0548 |
| CCATTCTA | -0.0568 |
| ACACCGGA | -0.00859 |
| GCCTGCGC | -0.279 |
| GACGTAAA | 0.28 |
| ACTTTCAA | -0.00135 |
| GTAACCAA | 0.136 |
| GATAAGAC | -0.0897 |
| CAGTGAAC | 0.0896 |
| CAGGTGTA | 0.235 |
| GCGCGGAA | -0.193 |
| GCTGCGTA | 0.301 |
| GAGACGCA | -0.0522 |
| GAAGGGCC | -0.111 |
| GTCCAATA | -0.0374 |
| AAGAAAAT | 0.169 |
| CGCAATCA | 0.00959 |

| Sequence | PBM E-score |
| --- | --- |
| CAGGTACG | -0.0832 |
| CTATAAGC | 0.0531 |
| GAGACATC | -0.268 |
| GACTACTA | 0.0788 |
| ATGGCTAC | -0.00025 |
| AGGCGGGA | -0.0554 |
| CAAGCGTC | -0.0593 |
| CATGCGGG | -0.0713 |
| AAAGCGAT | -0.072 |
| CGCTACAG | -0.0307 |
| ATGCTACC | 0.017 |
| ATTCGATA | 0.0276 |
| GGAAAAAA | 0.0247 |
| CAAGACGC | -0.0979 |
| TCCGGTAA | -0.0221 |
| CACCAAGG | -0.306 |
| GAGAAAAA | -0.0271 |
| TCAAGAAA | 0.181 |
| AATACCTA | 0.227 |
| CGTAATGC | 0.23 |
| AGAAGCAT | 0.0325 |
| TATTAGAA | 0.234 |
| ACCCTAAA | -0.212 |
| GCCGCAAA | -0.204 |
| AGGAAAAA | 0.00347 |

| Sequence | PBM E-score |
| --- | --- |
| CCCATGGG | -0.174 |
| GCAGGTAC | -0.0928 |
| ACCATGGG | -0.244 |
| GTATACTA | 0.0716 |
| CAGCGGGA | -0.226 |
| AGATCGAT | -0.0341 |
| ACGATTTC | 0.132 |
| AGAAAATC | -0.0334 |
| ACACACCG | 0.287 |
| ATCAAGTC | 0.0662 |
| AGTCTCTG | -0.217 |
| ACCCACAG | -0.0315 |
| CAGACGTC | -0.0719 |
| CAGAAATC | -0.0849 |
| CGCGAATA | 0.135 |
| CCGTGAAC | -0.0809 |
| CGATTTTA | 0.081 |
| AAGGTTCT | -0.063 |
| CTATGTCC | -0.177 |
| CCTGGTTC | -0.147 |
| ATACGGAC | -0.12 |
| ATATCGAA | 0.0738 |
| AAGAAAAC | 0.0106 |
| ACGATCTC | -0.132 |
| AACAGGCA | 0.0325 |

| Sequence | PBM E-score |
| --- | --- |
| GTCACCCA | -0.182 |
| CTTACACA | 0.408 |
| GAGCGCCA | -0.25 |
| CGTTTAGA | -0.00881 |
| CACGTTGG | 0.109 |
| GTAGCAAC | 0.16 |
| CACCGCAG | -0.173 |
| ATAGCCGC | -0.101 |
| CGTCGACC | -0.01 |
| ACTCCATA | -0.214 |
| ACGGCGCG | 0.118 |
| AAGACCAG | -0.101 |
| AACTACGC | 0.224 |
| GTCCACAC | 0.124 |
| ACTGAGTA | -0.0165 |
| GATATATC | -0.228 |
| CTGGAATA | 0.0108 |
| CGTCTGCC | -0.213 |
| ATTCTTGC | 0.00961 |
| GCTCGGAC | -0.269 |
| ACAGCAAA | 0.177 |
| CGTGGAAA | 0.0796 |
| AATATGGG | -0.217 |
| CGCAGCAC | -0.043 |
| AGAGCATA | -0.0993 |

| Sequence | PBM E-score |
| --- | --- |
| ACATACAT | 0.421 |
| CTTGCTCA | -0.254 |
| GCCGGAAC | -0.254 |
| AATCCCGA | -0.115 |
| ATAATGCA | 0.0474 |
| ATAGTTCA | 0.0984 |
| ACATTTCA | 0.214 |
| AGTTGCAT | 0.0449 |
| ACACCCGG | -0.0695 |
| GGGAACCA | -0.181 |
| GAAAGGCC | -0.196 |
| CTGGTACA | 0.0927 |
| GGGGACTA | -0.0876 |
| CAAAACAG | 0.124 |
| AAGCCGCA | -0.12 |
| ATAGCAGA | 0.00582 |
| AGCCAAGC | -0.18 |
| GCTCTCAA | -0.101 |
| AACTGTTG | -0.104 |
| GATTCCCC | -0.196 |
| GAAGTCGA | -0.0459 |
| ATGGTTTG | -0.0325 |
